Measurements reported in the supplement of paper PMC9990464.
Counter-ions that a name gives are not always drawn. ± gives the standard deviation of the averaged measurements. The list shows a part of the results. Most values come without repeats; read them as rough.

Key:
Assay in all cases: area under viability curve (10 nM-1 µM), viability relative to solvent or trametinib-only control (AUC (arbitrary, % viability x concentration range)); higher = less growth inhibition (more viable cells)
KCNR = conditions: 72 h compound exposure (96 h after seeding) h
Method: (§1)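 Four neuroblastoma cell lines (KCNR, SKNBE, SJNB8, SKNAS) were seeded in 384-well plates. At 24 h, 1 µM trametinib or DMSO was added, followed by library compounds at 10 nM, 100 nM and 1 µM. Viability was read by MTT at 96 h and normalised to solvent-treated cells (DMSO arm) or to trametinib-only cells (trametinib arm). The area under the 3-point viability curve was computed in GraphPad Prism; units are as given (approx. 100000 = no effect).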

SJNB8 = conditions: 72 h compound exposure (96 h after seeding) h; trametinib co-treatment 0 µM
Method: as §1

SKNAS = conditions: 72 h compound exposure (96 h after seeding) h
Method: as §1

SKNBE = conditions: 72 h compound exposure (96 h after seeding) h
Method: as §1
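Note: KCNR is a neuroblastoma cell line carrying an ALK mutation, in this DMSO arm without trametinib, viability was normalised to solvent-treated cells.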

Compound | area under viability curve (KCNR; trametinib co-treatment 0 µM) | area under viability curve (KCNR; trametinib co-treatment 1 µM) | area under viability curve (SJNB8) | area under viability curve (SKNAS; trametinib co-treatment 0 µM) | area under viability curve (SKNAS; trametinib co-treatment 1 µM) | area under viability curve (SKNBE; trametinib co-treatment 0 µM) | area under viability curve (SKNBE; trametinib co-treatment 1 µM)
C[C@@H]1CCN(C(=O)CC#N)C[C@@H]1N(C)c1ncnc2[nH]ccc12 [Tofacitinib] | 101000 | 99600 | 78900 | 86000 | 91200 | 105000 | 95000
C[C@]12CC[C@H](O)CC1=CC[C@@H]1[C@@H]2CC[C@]2(C)C(n3cnc4ccccc43)=CC[C@@H]12 [Galeterone] | 106000 | 107000 | 102000 | 126000 | 96300 | 108000 | 102000
O=NN(CCCl)C(=O)NCCCl [Carmustine] | 101000 | 107000 | 90800 | 83000 | 101000 | 108000 | 114000
CC(C)[C@H](O)C(=O)N[C@@H](C)C(=O)N[C@@H]1C(=O)N(C)CCc2ccccc21 [Semagacestat] | 104000 | 104000 | 100000 | 87600 | 98700 | 109000 | 96000
CC[C@@]1(O)C[C@H](O[C@H]2C[C@H](N(C)C)[C@H](O[C@H]3C[C@H](O)[C@H](O[C@H]4CCC(=O)[C@H](C)O4)[C@H](C)O3)[C@H](C)O2)c2c(cc3c(c2O)C(=O)c2c(O)cccc2C3=O)[C@H]1C(=O)OC [Aclacinomycin A HCl] | 92600 | 83000 | 82000 | 47500 | 96700 | 83400 | 76700
CN1CCN(c2ccc3nc(-c4c(N)c5c(F)cccc5[nH]c4=O)[nH]c3c2)CC1 [Dovitinib lactate] | 95400 | 98700 | 87700 | 110000 | 102000 | 100000 | 105000
COc1cc2nc(N3CCCN(C)CC3)nc(NC3CCN(Cc4ccccc4)CC3)c2cc1OC | 93900 | 93500 | 77700 | 88200 | 105000 | 79800 | 94300
CN(C)CCOc1ccc(/C(=C(/CCCl)c2ccccc2)c2ccccc2)cc1 [Toremifene citrate] | 98200 | 97500 | 61000 | 60200 | 98200 | 72500 | 91200
CC[C@@]1(O)C(=O)OCc2c1cc1n(c2=O)Cc2cc3c(CN(C)C)c(O)ccc3nc2-1 [Topotecan HCl] | 10700 | 9320 | 60400 | 40500 | 61400 | 36300 | 16700
COc1cc2c(Oc3ccc4[nH]c(C)cc4c3F)ncnc2cc1OCCCN1CCCC1 [Cediranib] | 92800 | 96700 | 65100 | 102000 | 96000 | 69900 | 81400
COc1ccc2c(Oc3ccc(NC(=O)c4c(C)n(CC(C)(C)O)n(-c5ccccc5)c4=O)nc3)ccnc2c1 | 101000 | 102000 | 68300 | 90600 | 92900 | 81100 | 97200
CC1(C)CCC(c2ccc(Cl)cc2)=C(CN2CCN(c3ccc(C(=O)NS(=O)(=O)c4ccc(N[C@H](CCN5CCOCC5)CSc5ccccc5)c(S(=O)(=O)C(F)(F)F)c4)cc3)CC2)C1 [Navitoclax] | 45800 ± 6000 | 18500 ± 7400 | 88200 ± 3100 | 110600 ± 920 | 68800 ± 4500 | 94900 ± 12000 | 73900 ± 12000
Cc1ccc(C(=O)c2cc(/C=C/C(=O)NO)n(C)c2)cc1 | 99800 | 96800 | 74000 | 89200 | 95300 | 98700 | 96900
CS(=O)(=O)CCNCc1ccc(-c2ccc3ncnc(Nc4ccc(OCc5cccc(F)c5)c(Cl)c4)c3c2)o1 [Lapatinib] | 105000 | 97800 | 71900 | 71800 | 104000 | 87100 | 102000
Cc1cc(Nc2ncc(Cl)c(Nc3ccccc3S(=O)(=O)C(C)C)n2)c(OC(C)C)cc1C1CCNCC1 [Ceritinib] | 63500 | 59500 | 80200 | 86300 | 92700 | 99200 | 92200
C=CC(=O)Nc1cc2c(Nc3ccc(F)c(Cl)c3)ncnc2cc1OCCCN1CCOCC1 [Canertinib 2HCl] | 102000 | 97500 | 66400 | 91800 | 94100 | 74700 | 99200
Cc1cc(Nc2cc(N3CCN(C)CC3)nc(Sc3ccc(NC(=O)C4CC4)cc3)n2)n[nH]1 [Tozasertib] | 32000 | 38500 | 55900 | 63100 | 59000 | 56200 | 37700
COc1ncc(-c2ccc3nccc(-c4ccnnc4)c3c2)cc1NS(=O)(=O)c1ccc(F)cc1F [Omipalisib] | 30700 | 21200 | 51100 | 56500 | 40600 | 18700 | 4330
CC(NC(=O)c1ccccc1/N=C/c1c(O)ccc2ccccc12)c1ccccc1 (configuration not stated) [Sirtinol] | 96200 | 96200 | 74000 | 85300 | 94900 | 83700 | 80100
COc1cc(N2CCC(N3CCN(C)CC3)CC2)ccc1Nc1ncc(Cl)c(Nc2ccccc2S(=O)(=O)C(C)C)n1 | 17400 | 23600 | 64300 | 56800 | 59200 | 47100 | 49700
Nc1nc(F)nc2c1ncn2[C@@H]1O[C@H](COP(=O)(O)O)[C@@H](O)[C@@H]1O [Fludarabine phosphate] | 106000 | 107000 | 79700 | 86900 | 99400 | 100000 | 112000

Compound | area under viability curve (KCNR; trametinib co-treatment 0 µM) | area under viability curve (KCNR; trametinib co-treatment 1 µM) | area under viability curve (SJNB8) | area under viability curve (SKNAS; trametinib co-treatment 0 µM) | area under viability curve (SKNAS; trametinib co-treatment 1 µM) | area under viability curve (SKNBE; trametinib co-treatment 0 µM) | area under viability curve (SKNBE; trametinib co-treatment 1 µM)
COc1cc2/c(=N/c3ccc(Br)cc3F)nc[nH]c2cc1OCC1CCN(C)CC1 [Vandetanib] | 96700 | 94900 | 69500 | 104000 | 91200 | 81200 | 93000
O=C(O)c1ccnc(C(=O)O)c1 [2,4-Pyridinedicarboxylic acid] | 101000 | 100000 | 70200 | 104000 | 102000 | 83600 | 90600
O=S(=O)(c1cccc2cnccc12)N1CCCNCC1 [Fasudil HCl] | 105000 | 98600 | 95100 | 107000 | 99700 | 107000 | 98400
COc1cccc2c1C(=O)c1c(O)c3c(c(O)c1C2=O)C[C@@](O)(C(=O)CO)C[C@@H]3O[C@H]1C[C@H](N)[C@H](O[C@@H]2CCCCO2)[C@H](C)O1 [Pirarubicin] | 31500 | 9890 | 61500 | 51300 | 61700 | 49200 | 30900
Cc1cccc(Oc2nc3c(C)cccn3c(=O)c2C=C(C#N)c2nc3ccccc3s2)c1 | 99100 | 99300 | 91300 | 90100 | 103000 | 88200 | 96900
Nc1cccc2c1CN(C1CCC(=O)NC1=O)C2=O (configuration not stated) [Lenalidomide] | 105000 | 95000 | 107000 | 93800 | 98200 | 104000 | 99500
CC(C)C[C@H](NC(=O)[C@@H](Cc1cccc2ccccc12)NC(=O)[C@H](Cc1ccc(O)cc1)NC(=O)[C@H](CO)NC(=O)[C@H](Cc1c[nH]c2ccccc12)NC(=O)[C@H](Cc1cnc[nH]1)NC(=O)[C@@H]1CCC(=O)N1)C(=O)N[C@@H](CCCNC(=N)N)C(=O)N1CCC[C@H]1C(=O)NCC(N)=O [Nafarelin acetate] | 101000 | 95000 | 78600 | 56800 | 97300 | 100000 | 99500
Cn1cnc2c(F)c(Nc3ccc(Br)cc3Cl)c(C(=O)NOCCO)cc21 [Selumetinib] | 107000 | 99600 | 44300 | 58400 | 105000 | 91700 | 101000
CCOC(=O)C1=CN(Cc2ccccc2)C=C(C(=O)OCC)C1c1ccccc1 | 101000 | 102000 | 81700 | 103000 | 99000 | 113000 | 102000
N[C@@]1(C(=O)O)CS(=O)(=O)[C@H]2[C@H](C(=O)O)[C@H]21 | 103000 | 101000 | 112000 | 114000 | 108000 | 118000 | 103000
CN(C)C(=O)c1cc2cnc(Nc3ccc(N4CCNCC4)cn3)nc2n1C1CCCC1 [Ribociclib] | 76000 | 79100 | 65600 | 92400 | 97100 | 69100 | 56600
CC(=O)Nc1cccc(-n2c(=O)n(C3CC3)c(=O)c3c(Nc4ccc(I)cc4F)n(C)c(=O)c(C)c32)c1 [Trametinib] | 84500 ± 18000 | 103000 ± 1800 | 26600 ± 7600 | 49900 ± 7300 | 101000 ± 6800 | 71600 ± 3600 | 107000 ± 5900
CCCS(=O)(=O)Nc1ccc(F)c(C(=O)c2c[nH]c3ncc(-c4ccc(Cl)cc4)cc23)c1F [Vemurafenib] | 108000 | 104000 | 67900 | 102000 | 102000 | 84600 | 104000
C[C@]12CC[C@H](O)CC1=CC[C@@H]1[C@@H]2CC[C@]2(C)C(c3cccnc3)=CC[C@@H]12 [Abiraterone] | 106000 | 102000 | 92000 | 124000 | 98900 | 106000 | 122000
COc1cc2c(cc1OC)CN(CCc1ccc(NC(=O)c3cccc4c(=O)c5cccc(OC)c5[nH]c34)cc1)CC2 [Elacridar] | 106000 | 106000 | 111000 | 112000 | 102000 | 124000 | 133000
Cc1cn(-c2cc(NC(=O)c3ccc(C)c(Nc4nccc(-c5cccnc5)n4)c3)cc(C(F)(F)F)c2)cn1 [Nilotinib] | 94500 | 100000 | 102000 | 119000 | 99000 | 92900 | 74600
Cc1[nH]c(/C=C2\C(=O)Nc3ccc(S(=O)(=O)N(C)c4cccc(Cl)c4)cc32)c(C)c1C(=O)N1CCN(C)CC1 | 101000 | 100000 | 67700 | 101000 | 99100 | 91400 | 97700
C#Cc1cccc(Nc2ncnc3cc(OCCOC)c(OCCOC)cc23)c1 [Erlotinib] | 102000 | 99700 | 106000 | 125000 | 103000 | 115000 | 95000
NC(=O)C1CCCc2c1[nH]c1ccc(Cl)cc21 (configuration not stated) [Selisistat] | 104000 | 104000 | 89300 | 117000 | 98200 | 97400 | 94000
CCCCCCCCCCCCCCCCCCCCCC(=O)Nc1ccn([C@@H]2O[C@H](CO)[C@@H](O)[C@@H]2O)c(=O)n1 [Enocitabine] | 75800 | 70000 | 55100 | 69200 | 80800 | 53700 | 49600
